Test results published in ChEMBL document CHEMBL4888484, “Replenishing the malaria drug discovery pipeline: Screening and hit evaluation of the MMV Hit Generation Library 1 (HGL1) against asexual blood stage Plasmodium falciparum ,using a nano luciferase reporter read-out” (2022).
The whole screen tested about 150,000 compounds, of which about 540 (0.36%) showed an effect of 50% or more. Some of the results follow.

tested on: Plasmodium falciparum; assay: Primary screen in NF54 nanoGlo assay, in single point, at 2uM, 72h; a lower Z score goes with more inhibition; format: functional, Erythrocyte; conditions: timepoint 72 hour

SMILES	% Inhibition	Z score
Cc1cccc(NC(=O)N2Cc3c(C)nn(-c4ccccc4)c3-n3cccc3[C@H]2c2ccccc2)c1	-8%	1.52
CC1CCN(CN2C(=O)N[C@](C)(c3ccc(C#N)cc3)C2=O)CC1	-6%	0.89
O=C(c1ccc(-c2ccc(Cl)cn2)cc1)N1CCS(=O)(=O)CC1	-14%	2.58
NCCn1nc(-c2ccc(F)cc2)n(C2CC2)c1=O	-1%	0.1
CCN(CCS(=O)(=O)c1ccc(C)cc1)C(=O)c1cc(C(C)C)on1	2%	-0.31
CC(C)c1ccc(-n2nc(N3CCN(C(=O)COc4ccc(F)cc4)CC3)ccc2=O)cc1	8%	-0.88
Cc1cc(C)nc(-c2nn(C(=O)c3ccccc3)c(=S)o2)n1	-35%	4.12
CCCNc1ncc(CN2CCO[C@H](C(N)=O)C2)cn1	-3%	0.36
Cc1ccc(S(=O)(=O)N2CCC([C@H](NC(=O)c3ccccc3)C(=O)N3CCCC3)CC2)cc1	-14%	1.34
COCCN1CC2(CCC1=O)CCN(C(=O)c1c(Cl)cnn1C)CC2	-7%	0.87
CNC(=O)[C@H](CC(C)C)NC(=O)c1cc(C)n(Cc2ccco2)c1C	-10%	1.79
CCc1nc2ncc(-c3ccnc(N4CCCC4)n3)c(C)n2n1	-4%	0.68
O=S(=O)(NC1CCN(Cc2ccc(F)c(F)c2)CC1)c1ccc2ccccc2c1	-7%	1.21
O=C1CN(Cc2cnn(-c3ccccc3)n2)CCN1	6%	-0.87
CC(C)(C)OC(=O)N1CCNc2ccccc21	-10%	1.56
Fc1cc2c(c(CN3CCC[C@H](c4nc5ccccc5s4)C3)c1)OCOC2	-3%	0.52
COC[C@H](C)NC(=O)CS(=O)(=O)c1ccccc1F	-8%	1.11
O=S(=O)(c1cccnc1)N1CC[C@H](n2ccnn2)C1	-12%	2.07
Cc1cc(S(=O)(=O)NCc2ccc(N3CCOCC3)cc2)ccc1N1CCCC1=O	-30%	2.65
CC(C)n1ccnc1-c1nccn1CCc1cccs1	-9%	0.88
O=C(Nc1ccc(C(F)(F)F)cc1)c1cc2cc(NC(=O)C3CCC3)ccc2n1Cc1cccc(F)c1	2%	-0.25

SMILES	% Inhibition	Z score
COCC(=O)Nc1cc(C(=O)N(C)C(C2CC2)C2CC2)c2c(c1)nc(-c1ccncc1)n2C	-4%	0.82
C=CCNC(=O)CN(C)[C@@H](C)c1cc(-c2ccccc2)[nH]n1	-3%	0.25
Cc1oc(-c2ccccc2)nc1CN1[C@H](C)CC[C@H](C(=O)O)[C@@H]1C	-8%	0.77
Cc1cc(S(C)(=O)=O)cc(C(=O)NCc2cccc(CO)n2)c1C	-12%	1.54
CCOC(=O)N1CCN(C(=O)C2C3C(=O)N(c4ccccc4)C[C@]34C=C[C@H]2O4)CC1 (some centres undefined)	-12%	1.56
O=C(Cn1ccnc1)NC(=O)NC1CCCC1	-5%	0.92
CCCCc1nc(-c2nccn2[C@@H](C)Cn2cccn2)c[nH]1	-12%	1.35
O=C(CCc1nc2ccccc2s1)N1CC(F)(F)C[C@H]1c1nncn1CC1CC1	-5%	0.62
CC(C)N1CCC(N2CCC[C@H](C(=O)N(C)Cc3ccccc3)C2)CC1	11%	-2.2
COC(=O)C(c1cccc(O)c1)N(C)CCOC1CCCCO1 (centres undefined)	-4%	0.87
c1ccc2oc(CN3CCC(c4nnc5n4CCCCC5)CC3)cc2c1	-16%	2.23
C[C@@H](c1ccccc1)n1cc(NC(=O)c2cc(=O)[nH]c(C3CC3)n2)cn1	2%	-0.31
C[C@H]1Cc2ccccc2N1Cc1cnc(-c2ccccc2)s1	-5%	0.44
Cc1cc(C(=O)N(Cc2ccccn2)c2ccc(F)cc2)on1	-5%	0.62
CC[C@@H]1OC2(CCN(C(=O)c3[nH]c4ccccc4c3OC)CC2)NC1=O	2%	-0.24
CCO[C@H]1COC[C@@H]1NC(=O)N(C)Cc1cnc(-c2ccccc2)s1	-9%	1.47
CC(C)C(=O)N(Cc1cc(NC(=O)C2CCC2)ccc1N(C)C)[C@@H](C)C(C)C	-2%	0.23
O=C(Nc1ccc(C(=O)N2CCCCC2)c(Cl)c1)c1ccccn1	-8%	1
CC(C)(CC(=O)N1CCO[C@H](C(F)F)C1)Cc1ccc(Cl)cc1	4%	-0.73
CC(=O)N1CCN(C(=O)C[C@@H]2CCN3C[C@@H]2/C=C/COc2ccc(N(C)CCc4ccccn4)cc2CNCC3=O)CC1	-13%	1.64
CC[C@H](C)Cc1nc(-c2cnc(N)s2)n(CC)n1	-10%	1.4

SMILES	% Inhibition	Z score
Cc1c(NC(=O)N2CCC([C@H](C)O)CC2)cccc1OC1CCCC1	-4%	0.81
COc1ccc(CCNc2nc(-c3ccccc3OC)c3c(N)n(-c4ccccc4)nc3n2)cc1	-4%	0.4
Cc1ccc(Nc2[nH]nnc2C(=O)N[C@H]2CCc3ccccc32)cc1C	33%	-0.85
CC(=O)N1CCC(CC(=O)Nc2cc(Cl)cc(Cl)c2)(N2Cc3ccccc3C2=O)CC1	-7%	1.19
Cc1cc(NCC(=O)Nc2ccn(C)n2)nc(C2CCC2)n1	-6%	0.95
N#Cc1ccc(CN2CCN3C(=O)c4ccccc4OCC[C@@H]4CC[C@@H](n5cc(CN6CCOCC6)nn5)[C@@H](CNC(=O)[C@@H]3C2)O4)cc1	-4%	0.55
Cc1c(CC(=O)N2CCC(O)CC2)c2c(n1CCc1ccccc1)CCCC2=O	-13%	1.15
Nc1nc(N2CCC[C@H](c3nccn3CC3CC3)C2)c2nc[nH]c2n1	11%	-1.54
COc1ccc(S(=O)(=O)N2CCC3(CC2)C[C@@H]3c2nnc3n2CCCCC3)cc1C	-4%	0.64
COc1cccc(C(=O)N2CC[C@H](Oc3cnccn3)C2)c1OC	-5%	0.74
CCO[C@@H](C)C(=O)NCCCn1cccn1	1%	-0.1
CC(C)OC[C@@H](O)CN1CCCS1(=O)=O	-4%	0.73
CCC#CCN1CCC(CCNC(C)=O)CC1	-11%	1.71
O=C(NCCc1cn[nH]c1)[C@@H]1CCC[C@H](O)C1	-13%	1.28
O=C(C[C@H]1COc2ccc(Cl)cc2N1Cc1ccc(F)cc1)Nc1nccs1	-11%	1.53
Cc1nc(C)c(C)c(N2CCC[C@H](c3cn(C)nn3)C2)n1	-5%	0.95
Cc1nn(C)c(C)c1[C@H]1OCC[C@@H]1NC(=O)CC1CC2CCC1C2 (some centres undefined)	2%	-0.2
CN(Cc1csc(-c2cccs2)n1)C1Cc2ccccc2C1	-2%	0.21
O=C(NCc1ccccc1)c1cc[n+](Cc2cccc(C(F)(F)F)c2)cc1	-8%	0.97
Cc1cc2[nH]cc(C(=O)N3CCC(c4nccn4CC4CC4)CC3)c(=O)n2n1	-19%	2.06
COc1ccc(C(=O)N(Cc2cc(NC(=O)C(C)C)ccc2N(C)C)C[C@H]2CCCO2)cc1	-18%	2.49

SMILES	% Inhibition	Z score
COc1cccc(CN2C(=O)CCCC[C@H]2C(=O)NCC(C)C)c1	2%	-0.27
CC(C)c1ccoc1C(=O)N1C[C@H](CS(N)(=O)=O)[C@@H](C)C1	-14%	1.43
CN(Cc1nccn1C)Cc1nnnn1CC(F)(F)F	7%	-0.8
CCc1ccc(Br)cc1C(=O)N1CC(C)(C(N)=O)C1	-2%	0.25
CC(C)CC1(CNC(=O)N(C)Cc2ncc[nH]2)CCC1	1%	-0.13
O=C(Cc1ccc2cn[nH]c2c1)N1CC[C@H](n2cccn2)C1	-9%	1
CCc1cc(C(=O)N2CCC[C@@H]2COC)cc(=O)[nH]1	-10%	1.6
CCN1CC2(CCN(c3ncc(OC)cn3)CC2)CC1=O	-2%	0.23
COc1ccc(-c2nn(-c3ccccc3C)cc2CN2CCC[C@@H]2CCO)cc1F	-1%	0.16
Cc1ccc(CN[C@@H]2CO[C@H](CNC(=O)N3CCOCC3)[C@H]2O)cc1	5%	-0.62
CC(C)(C)CN1CC[C@H](C2CCN(c3ncccc3C(N)=O)CC2)C1	-1%	0.19
CC1C(C(F)(F)F)OCCN1C(=O)Nc1cnc(CC2CC2)nc1 (centres undefined)	-3%	0.49
CC(C)(C)c1cnc(CNC2(c3ccccc3)CC2)o1	-21%	3.03
CC(CC(=O)N1CCC(C)C(O)C1)C(=O)c1ccc(Cl)cc1 (centres undefined)	-8%	1.19
Cc1noc(C)c1CN(C)C(=O)Nc1ccc(C(F)(F)F)cc1	-1%	0.17
C1CN(CCN2CCOCC2)CCO1	-34%	4.05
Cc1cc2c(cc1-c1ccnc3nc(-c4cccnc4)nn13)[C@@H](C)CC(C)(C)N2	-11%	1.44
Cc1cccnc1NC(=O)N[C@@H](Cc1ccccc1)C1CC1	-2%	0.25
CNc1nc(C(=O)N2CCN(C)[C@@]3(CCNC(=O)CC3)C2)cs1	-3%	0.51
